Test results published in PubChem BioAssay AID1745853 (National Center for Advancing Translational Sciences (NCATS), 2022).
This is one part of the list. These are further read-outs of the screen, such as a control signal, another cell line or another target. No call is given for them.

Key:
Assay in all cases: Primary Screen for Target Class Profiling of Small Molecule Inhibitors of Methyltransferases
[1] = target: Glycine N-methyltransferase (Homo sapiens) (UniProt Q14749); conditions: purified enzyme, MTase-Glo SAH luminescence; measured here: GNMT inhibition; at 40 µM; stronger effect = lower value
Description: (§1) PI: Matthew D. Hall Ph.D. and Quinlin M. Hanson Ph.D.
(§2) National Center for Advancing Translational Sciences (NCATS)
(§3) National Institute of Health (NIH), Rockville, MD
(§4) Target class profiling (TCP) is a chemical biology approach amenable to investigating understudied biological targets. TCP is achieved by developing a generalizable assay platform and applying it to screen a curated set of compound libraries against representative members of a target class. Small molecule methyltransferases (SMMTase) are a subclass of methyltransferase that act on metabolites to modulate signaling pathways, metabolize xenobiotics, or balance the available methyl pool. We screened four curated libraries totaling 27,574 unique compounds against the SMMTases nicotinamide N-methyltransferase (NNMT), phenylethanolamine N-methyltransferase (PNMT), histamine N-methyltransferase (HNMT), glycine N-methyltransferase (GNMT), catechol O-methyltransferase (COMT), and guanidinoacetate N-methyltransferase (GAMT). The data generated by this TCP can be leveraged for informed tool molecule development. For example, in the associated publication we identified a chemotype of HNMT-selective inhibitors. Additionally, we identified a putative SMMTase-selective inhibitor with potential as a tool molecule for studying broader methyltransferase biology.
(§5) High-through put screening assays were developed at the National Center for Advancing Translational Science (NCATS) for the enzymes NNMT, PNMT, HNMT, GNMT, COMT, and GAMT. Enzymatic activity was measured as a function of SAM cofactor conversion using the MTase Glo kit (Promega) for all enzymes. All assays were performed in 1536-well format with substrates and SAM concentrations at KM values. Enzyme concentration and assay timing were optimized for 10-20% SAM conversion. Initial screening of 27,574 compounds was done as single-point assays using the highest compound concentration (40 uM). […] These compounds were replated in 11-point dose response and assayed against NNMT, PNMT, HNMT, GNMT, COMT, GAMT, and a counter-assay. The IC50 and efficacy (maximal response) values were determined for each dose-response curve. These values are also accounted for in the area under the curve (AUC) values.
(§6) PROTOCOL TABLE (as described by Inglese J, Shamu CE and Guy RK. 2007)
(§7) SEQUENCE No. (e.g., 1, 2, 3, etc.); […] (e.g., Cells, Incubation, Reagent, etc.); VALUE; DESCRIPTION.
(§8) 1; Reagent; 2 uL; SMMTase Enzyme (2x) in reaction buffer, columns 1- 48.
(§9) 2; Reagent; 1 uL; SAM (4x) in reaction buffer, columns 1-48.
(§10) 3; Controls; 23 nL; DMSO in column 4; sinefungin in DMSO (0 uM - 40 uM) in 7-point 1:2 dilution series (n = 2) in column 2.
(§11) 4; Compounds; 23 nL; Columns 5-48.
(§12) 5; Reagent; 1 uL; Substrate (4x) in reaction buffer, columns 2-48.
(§13) 6; Time; 20-30 min; Incubation.
(§14) 7; Reagent; 1 uL; MTase-Glo reagent (5X), columns 1-48.
(§15) 8; Time; 30 min; Incubation.
(§16) 9; Reagent; 5 uL; MTase-Glo Detection reagent, columns 1-48.
(§17) 10; Time; 30 min; Incubation, luminescence evolution.
(§18) 11; Detection; Luminescence; ViewLux uHTS Microplate Imager (PerkinElmer).
(§19) NOTES (numbers refer to Sequence numbers above)
(§20) 1, 2, 5. White Medium Binding Greiner 1536-well plates (Cat #789175-F, Greiner Bio-One, Monroe, NC); Reaction buffer: 50 mM Tris, pH 8.0, 3 mM MgCl2, 1 mM EDTA, 50 mM NaCl, 1 mM DTT, and 0.1 mg/mL BSA. Evaporation was prevented by covering assay plates with metal lids containing holes to allow gas diffusion.
(§21) 1. Six SMMTase were profiled: HNMT, GNMT, PNMT, COMT, NNMT, GAMT
(§22) 5. The corresponding substrate was used for each enzyme: HNMT - 5.3 uM Histamine; GNMT - >500 uM Glycine; PNMT - 16.2 uM Norephinephrine; COMT - 13.7 uM Norephinephrine; NNMT - 3.8 uM Nicotinamide; GAMT - 2.5 uM Guanidinoacetate.6, 8, 10. Room temperature
(§23) 6. Final reaction conditions: 10 nM COMT, 5 uM SAM, 15 uM norepinephrine, 50 mM Tris, pH 8.0, 3 mM MgCl2, 1 mM EDTA, 50 mM NaCl, 1 mM DTT, and 0.1 mg/mL BSA; refer to tables 2 and S1 for specific timing.
8. […]

[2] = target: Guanidinoacetate N-methyltransferase (Homo sapiens) (UniProt Q14353); conditions: purified enzyme, MTase-Glo SAH luminescence; measured here: GAMT inhibition; at 40 µM; stronger effect = lower value
Description: as §1, §2, §3, §4, §5, §6, §7, §8, §9, §10, §11, §12, §13, §14, §15, §16, §17, §18, §19, §20, §21, §22, §23
8. […]

[3] = target: Histamine N-methyltransferase (Homo sapiens) (UniProt P50135); conditions: purified enzyme, MTase-Glo SAH luminescence; measured here: HNMT inhibition; at 40 µM; stronger effect = lower value
Description: as §1, §2, §3, §4, §5, §6, §7, §8, §9, §10, §11, §12, §13, §14, §15, §16, §17, §18, §19, §20, §21, §22, §23
8. […]

[4] = target: Nicotinamide N-methyltransferase (Homo sapiens) (UniProt P40261); conditions: purified enzyme, MTase-Glo SAH luminescence; measured here: NNMT inhibition; at 40 µM; stronger effect = lower value
Description: as §1, §2, §3, §4, §5, §6, §7, §8, §9, §10, §11, §12, §13, §14, §15, §16, §17, §18, §19, §20, §21, §22, §23
8. […]

[5] = target: Phenylethanolamine N-methyltransferase (Homo sapiens) (UniProt P11086); conditions: purified enzyme, MTase-Glo SAH luminescence; measured here: PNMT inhibition; at 40 µM; stronger effect = lower value
Description: as §1, §2, §3, §4, §5, §6, §7, §8, §9, §10, §11, §12, §13, §14, §15, §16, §17, §18, §19, §20, §21, §22, §23
8. […]
% is set by controls: 0 for no effect and ±100 for the full control effect.

SMILES | activity change, negative = inhibition [1] | activity change, negative = inhibition [2] | activity change, negative = inhibition [3] | activity change, negative = inhibition [4] | activity change, negative = inhibition [5]
COc1ccc(CNC(=O)C2(C)Cn3cnc(C(=O)NCc4ccccc4)c3C(=O)N2C2CC2)cc1 (stereo not given) | 3.19% | 2.4% | 15.5% | 5.43% | 10.6%
O=C(c1ccc(Cl)cc1)N1CCN(Cc2ccccc2-c2cccnc2)CC1 | -6.72% | -5.3% | -6.56% | -13.4% | -5.45%
Cc1cc(CN2C[C@@H](CO)[C@H](NC(=O)C3CCC3)C2)n(C)n1 | 0.204% | 2.89% | 2.4% | 0.337% | 4.29%
N#Cc1ccc(O[C@@H]2COCC[C@H]2NC(=O)Cn2nnnc2N)cc1 | -8.29% | -11% | -2.7% | -18.5% | -4.68%
CCC(C)NC(=O)c1ccc2c(=O)n(C(C)C)c3nn(CC(=O)c4ccc(F)cc4)c(=O)n3c2c1 (stereo not given) | 5.33% | 0% | 4.29% | 2.13% | 5.31%
C1=Cc2ccccc2C(=C2CCN(CCCCc3nn[nH]n3)CC2)c2ccccc21 | -1.47% | 11% | -9.09% | -46.1% | 4.9%
O=C(NCC1CCN(Cc2ccccn2)C1)Nc1ccc(F)cc1 (stereo not given) | -5.92% | -7.47% | -11.5% | -12.2% | -6.67%
CCCn1c(=O)c2ccc(C(=O)NC(C)C)cc2n2c(SCc3ccccc3)nnc12 | 6.44% | 0% | 6.42% | 8.83% | 8.24%
CC(=O)Nc1c2n(c3ccc(F)cc13)CC(C)(C(=O)NC1CCCCC1)N(Cc1cccs1)C2=O (stereo not given) | -18.6% | -3.56% | -4.22% | -20.6% | -4.75%
O=C(N1CCC(Cc2nc(-c3ccc(F)cc3)no2)CC1)C1(c2ccccc2)CC1 | -11.7% | -8.58% | -4.53% | -18.8% | -9.93%
CC1(C(=O)NC2CCCCC2)Cn2c(cc3occc32)C(=O)N1Cc1cccnc1 (stereo not given) | -3.12% | -2.16% | 9.02% | -0.304% | -3.03%
CC1CCC23COC(=O)C2=CC(O)CC3C1(C)CCc1ccoc1 (stereo not given) | -1.73% | -7.2% | 5.07% | -11% | -6.79%
COC1CC(=O)C23C(=O)NC(CC(C)C)C2C(C)C(C)=CC3/C=C(\C)CCC(O)C1O (stereo not given) | 0% | -0.677% | -0.639% | -11.6% | 1.26%
CC1(C(=O)O)CCCC2(C)C3=CCC4CC3(CCC12)CC4CO (stereo not given) | -1.22% | -5.24% | 8.41% | -20.6% | -13.7%
Cc1cccc(CNC(=O)c2ncn3c2C(=O)N(C2CC2)C(C)(C(=O)NC2CCCC2)C3)c1 (stereo not given) | -3.2% | 0% | 5.9% | -3.39% | -0.055%
CC1(C(=O)NC2CCCCC2)Cn2c(cc3ccccc32)C(=O)N1Cc1ccc(Cl)cc1 (stereo not given) | -6.36% | -1.86% | 3.21% | -3.63% | -3.08%
CCC(C)NC(=O)c1ccc2c(=O)n(C)c3nnc(SCC(=O)Nc4ccc(C)cc4)n3c2c1 (stereo not given) | 8.47% | 0% | 8.5% | 11.6% | 7.48%
CCOC(=O)c1cccc(CNc2ccc(N(C)C(=O)Nc3ccccc3)cc2)c1 | 0.81% | -4.26% | 6.57% | -20.7% | -38.6%
